The subject of this assay is Rg3GUS, Rh2GUS, H11G11, and FpL2-6. Kind of assay: Inhibition of the four regorafenib-glucuronide processing GUS enzymes. As to conditions: all four GUS enzymes.

The values below come from paper PMC7254866 (ACS chemical biology, 2019).

The structures appear in SMILES notation.

Turning to `Cc1c(-c2ccc(O)cc2)n(Cc2ccc(OCCN3CCCCCC3)cc2)c2ccc(O)cc12` [bazedoxifene], the “potency in comparison (in words)” value is “minor potency improvements over raloxifene”.
